# Data taken from ChEMBL document CHEMBL4888484, “Replenishing the malaria drug discovery pipeline: Screening and hit evaluation of the MMV Hit Generation Library 1 (HGL1) against asexual blood stage Plasmodium falciparum ,using a nano luciferase reporter read-out” (2022).
# In all, about 150,000 compounds went through this assay and about 540 (0.36%) showed an effect of 50% or more. This is one part of the list.
# System: Plasmodium falciparum
# Test: Primary screen in NF54 nanoGlo assay, in single point, at 2uM, 72h; a lower Z score goes with more inhibition
# Assay type: functional, Erythrocyte
# Details: timepoint 72 hour
Structure (SMILES),% Inhibition,Z score
COC[C@H]1NC(=O)CC[C@H]1C(=O)NCCC1=CCCCC1,-7%,0.76
CN(C)S(=O)(=O)N[C@H]1CCc2nc(-c3ccc(F)cc3F)cn2C1,-2%,0.24
O=C(CC1(O)CCC1)N[C@H]1CCCC[C@@H]1F,2%,-0.32
CCc1sc(NC(=O)C2CCN(C(=O)c3ccco3)CC2)nc1-c1ccccc1,-5%,0.69
N[C@@H](Cc1c[nH]c2ccccc12)C(=O)N1CCOCC1,11%,-1.47
Cc1nc(CNC(=O)C2(N3CCCCC3)CCCCC2)n[nH]1,4%,-0.62
COCC1CN(C(=O)NC2CC(C)N(Cc3ccccc3)C2)CC(C)O1 (stereo not given),4%,-0.73
Cc1ccccc1N1C[C@@H](c2nc3ccccc3n2CCc2ccccc2)CC1=O,-7%,0.7
CN(C)c1ccccc1NC(=O)c1cc(O)nc2ccccc12,-4%,0.64
CS(=O)(=O)N1CC[C@@H](C(N)=O)Oc2ccc(Cl)cc21,-17%,1.51
COc1cccc(CC(=O)N2CCCN(c3nc4cc(Cl)ccc4c4nnc(-c5cccc(C)c5)n34)CC2)c1,15%,-2.94
O=C(OC1CCN(c2nncc3ccccc23)CC1)c1cccnc1,-3%,0.5
COCC[C@H](NC(=O)c1c[nH]nc1-c1ccccn1)c1ccc(C)o1,-9%,1.22
CCC(COC)NCC(O)c1ccccc1C (stereo not given),-4%,0.38
Cc1cc(C(=O)N2CC3(CCCCC3)C2)no1,-2%,0.14
Cn1cncc1C(=O)N1CCCC(O)C1CCc1ccccc1 (stereo not given),-28%,2.99
O=C(c1cscn1)N1CC2CCC(O)C2C1 (stereo not given),1%,-0.15
CC(C)C1(CNC(=O)C[C@H](c2ccccc2)c2ncc[nH]2)CC1,5%,-0.81
O=C(OCc1cn2ccccc2n1)c1cccnc1Nc1ccccc1F,-6%,0.62
CC(C)(C)n1ncnc1CN1CCCC[C@@]1(C)C(N)=O,-5%,0.6
CC(C)c1nccc(-c2c(-c3ccccc3)ncn2Cc2ccco2)n1,-9%,1.19
Cc1cc(NC(=O)CCN(C)[C@@H](C)c2ccccc2F)no1,2%,-0.38

Structure (SMILES),% Inhibition,Z score
CC1(CO)CN(c2cc(C(C)(C)C)ccn2)C1,7%,-0.98
CCNc1nc(C(=O)N[C@@]2(C)CCOC2)cs1,-9%,0.92
CCC[C@H]1CN(Cc2cc3cc(C)ccc3[nH]c2=O)C[C@@H]1NS(C)(=O)=O,-11%,1.05
CCOC(=O)C1CCN(Cc2nc(C(C)C)cc(N3CCC(C(=O)OCC)CC3)n2)CC1,13%,-1.26
CCN1C[C@H](Nc2cc(OC)nc(N)n2)[C@@H](OC)C1,-3%,0.5
CCCn1cc(S(=O)(=O)Nc2ccc(F)cc2C)c2cccnc21,1%,-0.18
CC[C@@H](C(=O)N1CCc2nc(NC)nc(C(=O)N3CCCC3)c2C1)n1cccn1,-1%,0.3
O=C(Cn1cnnn1)N1COCC[C@H]1c1ccccc1,11%,-1.4
CN(C(=O)c1cc(-c2ccncc2)on1)[C@@H](CO)C(C)(C)C,1%,-0.18
Cc1cc(O)c(C(C)C)cc1NC(=O)CCN1CCCC1=O,-2%,0.44
CN(CCc1ncnn1Cc1ccc2c(c1)OCO2)[C@H]1CCS(=O)(=O)C1,-3%,0.74
CCc1nnc(-c2c(C)c(S(=O)(=O)NCc3ccc(F)cc3Cl)c(C)n2CC)o1,-13%,1.66
CC1(C)CC(S(=O)(=O)NCCC2(O)CCCOC2)CO1 (stereo not given),-5%,0.94
Clc1ccc(Cn2ccnc2-c2cc3n(n2)CCCNC3)cc1Cl,-1%,0.07
COc1ccc2cc1OCC(=O)N[C@@H](C)C(=O)N(C)CCCCN(C(=O)c1ccc(C(C)C)n(C)c1=O)CCCNC(=O)CC2,-6%,1.18
CC1=Nc2ccc(C)cc2N(Cc2ccccc2)C(=O)C1,-7%,0.62
CC1(C)C(NCC(O)COc2ccc(F)c(F)c2)[C@@H]2CCC[C@@H]21 (stereo not given in full),61%,-6.95
O=C(c1ccnn1C(F)F)N1CCc2c(CN3CCCC3)cccc21,4%,-0.72
C[C@H]1CN(Cc2noc3c2COCC3)Cc2c[nH]nc21,-5%,0.65
COc1ccc(Br)c(C(=O)N2CC(c3nc(-c4cccc(Cl)c4)no3)C2)c1,-16%,2.99
O=C(NS(=O)(=O)CCC1CCCC1)[C@H]1CC1(F)F,-9%,1.41
Cc1noc2nc3c(c(C(=O)N4C[C@H]5C[C@H](O)[C@H](O)C[C@H]5C4)c12)CCC3,-11%,1.02

Structure (SMILES),% Inhibition,Z score
Fc1ccc(N2CCN(c3c4c(nc5nncn35)CCC4)CC2)cc1,-2%,0.21
COc1c(F)cc([C@@H]2c3nc[nH]c3CCN2Cc2ccco2)cc1Cl,0%,0.01
COc1ccc2c(c1)C1(CC1)CN(C(=O)Nc1ccnnc1C)C2,-11%,2.25
COc1c[nH]c(C(=O)NCc2nc(CC(C)C)no2)cc1=O,-15%,1.31
COC(=O)c1ccc(NC(=O)N[C@@H]2C[C@@H](CO)N(C)C2)cc1,-7%,0.68
CCC(=O)N1CCN(C(=O)c2sccc2Cl)[C@H]2CS(=O)(=O)C[C@H]21,-2%,0.19
CC1CCN(C(=O)c2oc3ccccc3c2NC(=O)C2CCCC2)CC1,-7%,0.72
c1ccc(-n2nnnc2C2(N3CCOCC3)CCCC2)cc1,-20%,2.89
COc1ncccc1CNC(=O)N(C)Cc1cc(C)on1,-6%,1.09
CCCN1CCN(C2CCN(C3CCN(S(=O)(=O)c4cccs4)CC3)CC2)CC1,-17%,1.68
O=C1NCCN2CC3(CCN(C(=O)CCCc4ccccc4)CC3)C[C@@H]12,-13%,2.43
O=C(c1ccc2[nH]nnc2c1)N1CCN2C(=O)OC[C@H]2C1,-24%,2.09
CC(=O)N1CCC[C@H]1C(=O)N(CCc1cccc(F)c1)C1CC1,-10%,1.35
COCC1(C(=O)N[C@@H](C)c2nc(CC(C)C)no2)CCC1,-3%,0.64
CC[C@H](C)NC(=O)COC(=O)c1nccnc1N,-8%,1.09
Cc1ccccc1N1C(=O)CN(C(=O)C2Cc3ccccc3O2)CC1C (stereo not given),-3%,0.6
CC(C)c1nc(CN2C[C@@H]3CC[C@H](C2)C(=O)N3)co1,11%,-1.33
CC(CNC1CC(C)(C)OC1(C)C)CS(C)(=O)=O (stereo not given),-4%,0.55
CC(C)CC1(C(=O)N[C@@H](C)CC(=O)O)CCC1,-8%,0.83
CCC(=O)Nc1ccc(CC)cc1-c1nc2ccccc2n(CC(=O)c2ccc(F)cc2)c1=O,-8%,1.61
Cc1ccc(N(C)Cc2nncs2)c(F)c1,-4%,0.34
CCC(=O)N1CCCc2cc(S(=O)(=O)N3CCC(C(=O)Nc4ccc(F)c(F)c4)CC3)ccc21,6%,-0.71

Structure (SMILES),% Inhibition,Z score
CC(C)N(C)Cc1nnnn1CC(=O)NCCC1=CC[C@H]2C[C@@H]1C2(C)C,-4%,0.54
c1ccc(COc2ccccc2OCCN2CCOCC2)cc1,2%,-0.35
O=C(CN1CCC(c2nnc3n2CCC3)CC1)N1CCCCC1,-13%,1.61
CCN1C(=O)COc2ccc(NC(=O)N[C@@H](C)c3ccc(C)nc3)cc21,-1%,0.21
CN(C)[C@@H]1C[C@@H](CO)N(C(=O)Nc2ccc(OC(F)(F)F)cc2)C1,-1%,0.26
COCCNc1ccccc1NC(=O)C1CCC(F)(F)CC1,-8%,1.53
CCc1c(C(=O)N2CCC3(CN(C)C3)C2)ccn1C,-9%,1.69
CN1N=C(C(=O)N2CC[C@@]3(CCCN(CCc4ccccc4)C3)C2)CCC1=O,-6%,0.82
CC(C)NC(=O)CNC(=O)Cc1ccccc1,-44%,5.13
CCn1cc(CN(C)C(=O)Nc2cc(C)nn2-c2ccc(OC)cc2)cn1,-7%,0.99
CN(C)c1cc(C(=O)OCc2nc3cc(C(F)(F)F)ccc3o2)ccn1,32%,-3.57
CC[C@](C)(O)CN(Cc1ccccc1)S(=O)(=O)C1CC1,7%,-1.08
O=C(Cn1cc(F)ccc1=O)N1CCc2ccccc21,-8%,1.07
COc1ccc(-c2nnc(C)o2)cc1NC(=O)[C@H]1CCOC1,-4%,0.54
Cc1c(C[C@@H]2C(=O)N(C)c3ccccc32)oc2ccc(F)cc12,-13%,1.16
CC1CCCC(C)N1C(=O)N(C)CC(C)(CO)CO (stereo not given),-3%,0.36
O=C1N[C@@](c2ccccc2)(C(F)(F)F)C(=O)N1CC=Cc1ccccc1,-6%,0.86
COCCN1C[C@@H](Cc2ccc(N3CCOCC3)cc2)CC1=O,-1%,0.12
Cc1ccc2c(c1F)N(C(=O)c1ccc(=O)n(C)n1)CCC2,-9%,1.34
